Results are given in words; binding and its absence hold for the method and conditions named. Some results given as binding are weak or reduced against the parent protein; the word gives no strength.

By UniProt entry, the sequences of proteins in these tests, tags left out. Where a name states a change or a piece, a line headed by the entry shows the natural chain unless it says otherwise. Chains listed by the source or under a name are the forms on record and can include a tag or linker. Residues count along the entry.
full-length human p75 neurotrophin receptor fused at the cytoplasmic C-terminus to GFP (P08138, residues 29-427): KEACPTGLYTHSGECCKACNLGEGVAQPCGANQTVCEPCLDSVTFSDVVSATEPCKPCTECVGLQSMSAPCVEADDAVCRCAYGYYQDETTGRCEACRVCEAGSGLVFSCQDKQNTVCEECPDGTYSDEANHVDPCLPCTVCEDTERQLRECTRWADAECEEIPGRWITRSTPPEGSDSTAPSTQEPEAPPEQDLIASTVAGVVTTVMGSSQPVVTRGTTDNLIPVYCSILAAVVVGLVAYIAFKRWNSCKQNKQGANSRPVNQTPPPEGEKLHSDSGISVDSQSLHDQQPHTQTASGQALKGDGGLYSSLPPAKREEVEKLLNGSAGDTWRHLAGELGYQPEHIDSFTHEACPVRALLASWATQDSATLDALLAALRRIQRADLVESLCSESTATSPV
p75^NTR F136H (P08138, form named): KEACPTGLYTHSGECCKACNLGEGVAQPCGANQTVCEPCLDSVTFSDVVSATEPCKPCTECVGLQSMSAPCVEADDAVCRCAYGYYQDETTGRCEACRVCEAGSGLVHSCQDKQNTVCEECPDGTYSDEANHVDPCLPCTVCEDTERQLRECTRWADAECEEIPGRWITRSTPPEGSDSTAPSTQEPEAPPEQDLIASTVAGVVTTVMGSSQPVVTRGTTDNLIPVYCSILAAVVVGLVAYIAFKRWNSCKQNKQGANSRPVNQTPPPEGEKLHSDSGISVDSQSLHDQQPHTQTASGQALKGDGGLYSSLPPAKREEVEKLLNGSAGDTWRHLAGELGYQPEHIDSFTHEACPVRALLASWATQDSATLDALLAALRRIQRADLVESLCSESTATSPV
p75^NTR F136K (P08138, form named): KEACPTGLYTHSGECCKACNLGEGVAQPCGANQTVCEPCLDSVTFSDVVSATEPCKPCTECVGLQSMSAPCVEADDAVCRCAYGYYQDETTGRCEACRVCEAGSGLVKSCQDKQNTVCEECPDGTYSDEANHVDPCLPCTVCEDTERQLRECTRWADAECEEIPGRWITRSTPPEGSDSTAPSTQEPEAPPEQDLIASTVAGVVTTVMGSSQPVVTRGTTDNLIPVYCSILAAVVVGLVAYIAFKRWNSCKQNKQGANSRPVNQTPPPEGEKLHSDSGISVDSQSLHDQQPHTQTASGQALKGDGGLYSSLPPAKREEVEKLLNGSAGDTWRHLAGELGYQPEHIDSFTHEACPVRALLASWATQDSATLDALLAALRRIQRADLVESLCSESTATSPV
p75^NTR L165H (P08138, form named): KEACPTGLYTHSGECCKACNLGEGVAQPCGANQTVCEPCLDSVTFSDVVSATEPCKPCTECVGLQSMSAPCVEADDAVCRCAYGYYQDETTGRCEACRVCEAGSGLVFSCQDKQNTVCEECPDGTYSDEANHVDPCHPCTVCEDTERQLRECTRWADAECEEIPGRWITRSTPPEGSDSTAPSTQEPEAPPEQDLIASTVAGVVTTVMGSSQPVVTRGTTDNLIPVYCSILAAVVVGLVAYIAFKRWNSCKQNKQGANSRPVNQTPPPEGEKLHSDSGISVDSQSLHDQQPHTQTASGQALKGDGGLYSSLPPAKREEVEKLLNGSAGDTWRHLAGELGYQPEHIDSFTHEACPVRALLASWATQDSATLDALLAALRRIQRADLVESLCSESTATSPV
p75^NTR L165K (P08138, form named): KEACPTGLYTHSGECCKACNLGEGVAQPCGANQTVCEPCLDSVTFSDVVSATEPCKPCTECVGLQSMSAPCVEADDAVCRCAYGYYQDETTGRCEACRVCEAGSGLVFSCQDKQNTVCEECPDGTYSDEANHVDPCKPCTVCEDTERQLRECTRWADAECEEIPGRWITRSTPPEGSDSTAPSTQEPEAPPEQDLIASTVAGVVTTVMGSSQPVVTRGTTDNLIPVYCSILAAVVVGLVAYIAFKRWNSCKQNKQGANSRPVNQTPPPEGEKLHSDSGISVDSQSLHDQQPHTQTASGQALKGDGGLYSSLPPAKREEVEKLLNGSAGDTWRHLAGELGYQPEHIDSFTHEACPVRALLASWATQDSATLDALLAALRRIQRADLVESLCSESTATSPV
p75^NTR P150H (P08138, form named): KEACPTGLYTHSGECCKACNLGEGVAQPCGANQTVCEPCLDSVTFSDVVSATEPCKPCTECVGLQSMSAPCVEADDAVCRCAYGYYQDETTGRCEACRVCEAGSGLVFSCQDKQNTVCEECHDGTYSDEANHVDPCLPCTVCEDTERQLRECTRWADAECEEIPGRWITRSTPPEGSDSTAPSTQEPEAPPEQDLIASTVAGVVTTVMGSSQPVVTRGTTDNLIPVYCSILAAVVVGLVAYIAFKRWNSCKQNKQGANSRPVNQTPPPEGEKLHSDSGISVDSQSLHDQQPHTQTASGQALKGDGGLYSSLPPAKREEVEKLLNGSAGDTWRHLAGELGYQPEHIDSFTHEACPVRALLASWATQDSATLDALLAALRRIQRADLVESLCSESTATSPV
p75^NTR P150K (P08138, form named): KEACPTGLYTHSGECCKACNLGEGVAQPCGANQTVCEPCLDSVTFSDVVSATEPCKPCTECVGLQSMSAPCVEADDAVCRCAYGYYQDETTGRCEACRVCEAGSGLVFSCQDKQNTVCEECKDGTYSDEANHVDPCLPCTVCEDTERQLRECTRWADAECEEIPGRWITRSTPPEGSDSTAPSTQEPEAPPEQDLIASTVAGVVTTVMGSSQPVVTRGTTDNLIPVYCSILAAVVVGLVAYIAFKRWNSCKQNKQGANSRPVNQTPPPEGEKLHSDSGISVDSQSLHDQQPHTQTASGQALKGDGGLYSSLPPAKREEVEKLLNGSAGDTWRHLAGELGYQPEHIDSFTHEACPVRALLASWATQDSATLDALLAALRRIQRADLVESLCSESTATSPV
p75^NTR P166H (P08138, form named): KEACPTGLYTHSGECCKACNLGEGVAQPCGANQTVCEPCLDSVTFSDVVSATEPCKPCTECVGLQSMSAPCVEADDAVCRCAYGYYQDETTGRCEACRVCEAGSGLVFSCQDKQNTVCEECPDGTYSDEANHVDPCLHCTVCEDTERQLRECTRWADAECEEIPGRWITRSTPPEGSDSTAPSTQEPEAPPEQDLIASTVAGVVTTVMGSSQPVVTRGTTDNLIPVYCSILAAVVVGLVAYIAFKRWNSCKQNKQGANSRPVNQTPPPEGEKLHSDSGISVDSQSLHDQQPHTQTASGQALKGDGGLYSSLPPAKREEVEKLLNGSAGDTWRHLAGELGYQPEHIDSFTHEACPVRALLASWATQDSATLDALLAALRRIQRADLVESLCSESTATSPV
p75^NTR P166K (P08138, form named): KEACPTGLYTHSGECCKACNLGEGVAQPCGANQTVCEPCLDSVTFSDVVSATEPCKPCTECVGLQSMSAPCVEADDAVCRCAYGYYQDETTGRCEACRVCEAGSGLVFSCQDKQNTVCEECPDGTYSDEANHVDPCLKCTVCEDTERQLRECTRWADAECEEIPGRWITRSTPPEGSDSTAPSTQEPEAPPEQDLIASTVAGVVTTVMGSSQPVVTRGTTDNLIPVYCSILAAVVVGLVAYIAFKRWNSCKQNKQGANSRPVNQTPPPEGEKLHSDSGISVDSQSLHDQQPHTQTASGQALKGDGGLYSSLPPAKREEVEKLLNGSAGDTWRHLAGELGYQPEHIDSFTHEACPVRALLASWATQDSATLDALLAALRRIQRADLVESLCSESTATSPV
p75^NTR R182H (P08138, form named): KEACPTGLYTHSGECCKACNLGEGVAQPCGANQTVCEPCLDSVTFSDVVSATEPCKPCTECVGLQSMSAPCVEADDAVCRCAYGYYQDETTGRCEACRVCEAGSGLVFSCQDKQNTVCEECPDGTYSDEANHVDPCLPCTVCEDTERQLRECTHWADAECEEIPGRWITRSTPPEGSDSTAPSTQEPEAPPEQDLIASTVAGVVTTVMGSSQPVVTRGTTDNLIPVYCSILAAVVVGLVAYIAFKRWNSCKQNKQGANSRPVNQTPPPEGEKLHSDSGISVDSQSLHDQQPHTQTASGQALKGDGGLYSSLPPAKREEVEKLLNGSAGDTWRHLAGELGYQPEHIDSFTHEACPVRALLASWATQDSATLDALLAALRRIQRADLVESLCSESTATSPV
p75^NTR R182K (P08138, form named): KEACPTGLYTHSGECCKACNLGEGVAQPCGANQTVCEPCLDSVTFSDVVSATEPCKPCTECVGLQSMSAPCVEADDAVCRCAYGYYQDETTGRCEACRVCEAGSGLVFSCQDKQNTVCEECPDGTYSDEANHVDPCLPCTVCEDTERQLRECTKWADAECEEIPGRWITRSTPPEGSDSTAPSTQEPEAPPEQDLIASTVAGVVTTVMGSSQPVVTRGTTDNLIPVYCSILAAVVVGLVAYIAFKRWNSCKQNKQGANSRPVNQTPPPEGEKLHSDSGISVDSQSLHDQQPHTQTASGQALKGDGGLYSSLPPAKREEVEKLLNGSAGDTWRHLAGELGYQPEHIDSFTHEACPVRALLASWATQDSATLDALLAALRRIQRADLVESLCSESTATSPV
p75^NTR S137H (P08138, form named): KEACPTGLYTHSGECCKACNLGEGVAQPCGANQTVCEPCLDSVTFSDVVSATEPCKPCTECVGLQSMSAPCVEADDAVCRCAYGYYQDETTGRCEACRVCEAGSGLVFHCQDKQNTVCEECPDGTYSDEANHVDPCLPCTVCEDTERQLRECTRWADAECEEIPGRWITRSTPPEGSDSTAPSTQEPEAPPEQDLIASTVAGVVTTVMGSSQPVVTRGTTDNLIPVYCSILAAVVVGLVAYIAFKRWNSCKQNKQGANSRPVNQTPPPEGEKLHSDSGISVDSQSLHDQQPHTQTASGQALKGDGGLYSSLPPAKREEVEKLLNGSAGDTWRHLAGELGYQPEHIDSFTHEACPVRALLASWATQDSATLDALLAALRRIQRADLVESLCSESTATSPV
p75^NTR S137K (P08138, form named): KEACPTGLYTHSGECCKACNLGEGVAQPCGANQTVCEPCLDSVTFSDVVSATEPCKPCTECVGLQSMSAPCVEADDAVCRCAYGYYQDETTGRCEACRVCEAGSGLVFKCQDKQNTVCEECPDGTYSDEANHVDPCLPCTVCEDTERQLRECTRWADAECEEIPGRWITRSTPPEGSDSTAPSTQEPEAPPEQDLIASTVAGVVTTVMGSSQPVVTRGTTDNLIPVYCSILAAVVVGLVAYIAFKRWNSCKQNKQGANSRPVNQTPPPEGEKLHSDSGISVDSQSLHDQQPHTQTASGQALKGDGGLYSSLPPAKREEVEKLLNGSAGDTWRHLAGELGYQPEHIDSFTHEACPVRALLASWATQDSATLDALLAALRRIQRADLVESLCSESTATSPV
UniProt Q9Z0W1, residues 32-427: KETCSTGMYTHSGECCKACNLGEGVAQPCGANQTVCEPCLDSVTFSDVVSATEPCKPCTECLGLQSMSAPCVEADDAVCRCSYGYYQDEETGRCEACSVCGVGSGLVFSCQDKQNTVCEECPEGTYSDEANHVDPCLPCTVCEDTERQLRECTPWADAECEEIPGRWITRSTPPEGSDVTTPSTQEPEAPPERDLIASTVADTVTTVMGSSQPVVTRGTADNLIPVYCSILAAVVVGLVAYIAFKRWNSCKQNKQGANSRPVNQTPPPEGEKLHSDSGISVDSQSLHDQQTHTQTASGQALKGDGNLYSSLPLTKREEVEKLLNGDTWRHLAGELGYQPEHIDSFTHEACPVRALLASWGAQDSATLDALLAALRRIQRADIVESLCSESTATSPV
UniProt P07174, residues 30-425: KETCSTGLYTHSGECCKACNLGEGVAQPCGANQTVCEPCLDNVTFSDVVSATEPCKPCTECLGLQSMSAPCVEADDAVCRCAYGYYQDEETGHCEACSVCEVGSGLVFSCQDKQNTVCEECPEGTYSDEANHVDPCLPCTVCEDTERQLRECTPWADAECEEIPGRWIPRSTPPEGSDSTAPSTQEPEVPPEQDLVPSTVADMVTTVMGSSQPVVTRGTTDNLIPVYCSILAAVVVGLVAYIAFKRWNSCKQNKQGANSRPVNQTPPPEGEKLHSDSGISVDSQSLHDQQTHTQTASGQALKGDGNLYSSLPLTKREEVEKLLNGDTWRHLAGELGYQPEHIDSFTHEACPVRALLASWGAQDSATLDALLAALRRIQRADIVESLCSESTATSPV
UniProt P42081, residues 24-329: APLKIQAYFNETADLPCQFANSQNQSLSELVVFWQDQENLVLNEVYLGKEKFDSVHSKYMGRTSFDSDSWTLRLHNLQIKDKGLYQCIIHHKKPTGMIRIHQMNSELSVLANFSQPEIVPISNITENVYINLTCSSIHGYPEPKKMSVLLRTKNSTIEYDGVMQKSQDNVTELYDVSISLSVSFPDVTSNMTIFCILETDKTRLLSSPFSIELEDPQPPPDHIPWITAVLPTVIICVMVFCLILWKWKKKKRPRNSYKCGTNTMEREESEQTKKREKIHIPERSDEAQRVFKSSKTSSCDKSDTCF
UniProt Q00609, residues 38-306: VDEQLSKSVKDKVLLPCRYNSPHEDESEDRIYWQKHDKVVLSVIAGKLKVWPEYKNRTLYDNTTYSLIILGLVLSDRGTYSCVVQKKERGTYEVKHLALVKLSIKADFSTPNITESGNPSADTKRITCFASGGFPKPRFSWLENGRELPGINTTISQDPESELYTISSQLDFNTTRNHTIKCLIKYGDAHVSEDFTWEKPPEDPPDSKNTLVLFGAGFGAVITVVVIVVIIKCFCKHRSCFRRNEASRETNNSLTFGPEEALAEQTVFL

For assay [1], the target named is human p75 neurotrophin receptor-GFP (human) (UniProt P08138). The assay is described as follows: flow cytometry on cells; cell-cell binding of sorted stable HEK293 lines (B7-1-mCherry, B7-1N82E-mCherry, B7-2-mCherry) with GFP-tagged query cells; % cell bound. (In general: Flow cytometry measures light scatter and fluorescence of single cells or particles in a stream.)

Assay [2] addresses mCD28-GFP (mouse) (UniProt P31041). Described as above.
Assay [3] addresses mCTLA4-GFP (mouse) (UniProt P09793). Described as above.
The target of assay [4] is full-length human p75 neurotrophin receptor fused at the cytoplasmic C-terminus to GFP (human) (UniProt P08138). The assay is described as follows: flow cytometry on cells; B7-1–Fc or B7-1N82E–Fc titrated against cells expressing CTLA-4, CD28 or p75NTR; only the binder purified.
In assay [5] the target is p75^NTR F136H (human) (UniProt P08138). Nature of the assay: flow cytometry on cells; cell-cell conjugates, salt bridge suppressor screen: cells expressing p75NTR lysine or histidine mutants against cells expressing B7-1 D/E mutants or WT B7-1.
Assay [6] addresses p75^NTR F136K (human) (UniProt P08138). Described as above.
Assay [7] addresses p75^NTR L165H (human) (UniProt P08138). The assay is described as above.
Assay [8] concerns the target p75^NTR L165K (human) (UniProt P08138). The assay is described as above.
Assay [9] addresses p75^NTR P150H (human) (UniProt P08138). The description is as above.
Assay [10] concerns the target p75^NTR P150K (human) (UniProt P08138). The assay is described as above.
Assay [11] deals with p75^NTR P166H (human) (UniProt P08138). The description is as above.
In assay [12] the target is p75^NTR P166K (human) (UniProt P08138). Described as above.
Assay [13] has as its target p75^NTR R182H (human) (UniProt P08138). The assay is described as above.
In assay [14] the target is p75^NTR R182K (human) (UniProt P08138). The assay is described as above.
In assay [15] the target is p75^NTR S137H (human) (UniProt P08138). The description is as above.
Assay [16] has as its target p75^NTR S137K (human) (UniProt P08138). The description is as above.
Assay [17] has as its target human p75 neurotrophin receptor-GFP (human) (UniProt P08138). Nature of the assay: flow cytometry on cells; 750 nM hB7-1-Fc incubated with p75NTR-expressing cells alone or with 750 nM, 2 uM or 10 uM abatacept or Ig control; geoMean 647; only the binder purified.
The target of assay [18] is human B7-1-mCherry fusion protein (human) (UniProt P33681). The assay is described as follows: flow cytometry on cells; high-throughput cell-cell screen: HEK293F query cells (C-terminal mCherry fusion) mixed 1:1 in 96-well format with cells each expressing one member of the Ig/TNFR superfamily library (C-terminal GFP); double-positive events as % bound; PBS 0.2% BSA, pH 7.4.

The target of assay [19] is protein tyrosine phosphatase receptor type F-GFP (human) (UniProt P10586). Described as above.
For assay [20], the target named is full-length human p75 neurotrophin receptor fused at the cytoplasmic C-terminus to GFP (human) (UniProt P08138). Nature of the assay: flow cytometry on cells; cell-cell conjugates: cells expressing B7-1–mCherry of various mammalian species against cells expressing human, mouse or rat p75NTR-GFP.
For assay [21], the target named is mouse p75^NTR-GFP (mouse) (UniProt Q9Z0W1). The description is as above.
Assay [22] deals with rat p75^NTR-GFP (rat) (UniProt P07174). The assay is described as above.

Consider “B7-1N82E-mCherry (from UniProt P33681 35-288) (ligand)”, for which the figures for the binding entry in [1], in assay [2] and in assay [3] were “no binding”, “binds” and “binds”, respectively.
For “B7-1N82E–Fc (from UniProt P33681 35-233) (Fc fusion)”, the binding result in [4] is listed as “no binding”.
Take “B7-2-mCherry (from UniProt P42081 24-329) (ligand)”: the binding result in assay [1] was “no binding”; in assay [2], “binds”; in assay [3], “binds”.
As for “hB7-1 K120D–mCherry (from UniProt P33681 35-288) (ligand)”, the binding entry in assay [5], in assay [6], in assay [7], in assay [8], in [9] and in assay [10] was “no binding” in each case. For the same substance, the binding result in assay [11], in assay [12], in assay [13], in assay [14], in assay [15] and in assay [16] was “no binding” in each case.
Regarding “hB7-1 K127D–mCherry (from UniProt P33681 35-288) (ligand)”, the binding result in assay [5], in [6], in assay [7], in assay [8], in [9] and in assay [10] was “no binding” throughout. Also, the binding entry in assay [11], in assay [12], in assay [13], in [14], in assay [15] and in [16] was “no binding” throughout.
For “hB7-1 K139D–mCherry (from UniProt P33681 35-288) (ligand)”, the binding entry in assay [5], in assay [6], in assay [7], in assay [8], in assay [9] and in assay [10] was “no binding” throughout. The binding entry in assay [11], in [12], in [13], in assay [14], in assay [15] and in [16] was “no binding” throughout.
Turning to “hB7-1 R63D–mCherry (from UniProt P33681 35-288) (ligand)”, the binding entry in [5], in assay [6], in assay [7], in assay [8], in assay [9] and in [10] was “no binding” each time. In addition, the binding result in [11], in [12], in [13], in assay [14], in assay [15] and in [16] was “no binding” throughout.
With “hB7-1-mIgG2A (from UniProt P33681 35-233) (Fc fusion)”, the binding result in assay [17] is given as “binds”.
Consider “hB7-1N82E–mCherry (from UniProt P33681 35-288) (ligand)”, for which the binding result in assay [5] is “binds”; in assay [6], “binds”; in assay [7] it was “no binding”; in assay [8] it was “no binding”; in assay [9], “no binding”; in assay [10] it was “no binding”. Besides, the binding result in assay [11], in [12], in assay [13], in [14], in [15] and in assay [16] was “no binding” each time.
“human p75 neurotrophin receptor-GFP (from UniProt P08138 29-427)”: the binding result in assay [18] and in assay [19] was “binds” each time.
On to “mouse B7-1–mCherry (from UniProt Q00609 38-306) (ligand)”, for which the binding entry in [20], in assay [21] and in [22] was “no binding” each time.

These data come from paper PMC9663165.
